# Laboratory results reported in the supplement of paper PMC11417369.
# ± gives the standard deviation of the averaged measurements. Some of the results follow.
# Tested on: PfAP2-I AP2 domain 3 (GST-tagged)
# Assay: gcPBM binding intensity (ln(normalized median fluorescence intensity)); higher = stronger DNA binding
# Method in brief: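 An Agilent 4 × 180k array carrying primer-extended double-stranded 36-bp intergenic genomic probes and negative controls received GST-tagged P. falciparum DNA-binding domains expressed in E. coli, about 25 μg on average, for 1 h. The binding buffer contained 1× PBS, 1% milk, 0.2 mg/ml BSA, 0.5% salmon testes DNA and 0.03% Triton X-100. Binding intensity is the top Masliner-normalised natural-log median intensity across replicate spots of either probe orientation, read after Alexa488 anti-GST antibody staining and a 488 nm scan.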
row,Sequence,gcPBM binding intensity (ln)
1,TAAGGTTAAATAATATGTACATATTATTATATATAT [XGTACX_site6953],8.28 ± 0.39
2,AAAGAAAGTACCTTCACACATATAAGAATATAATAT [CACACA_site5214],7.72 ± 0.45
3,AAAAAAAAAATATATTGTACAAATAGATATGTCAAT [XGTACX_site122],7.83 ± 0.67
4,TGAAATACGAATTATTGTACTTATGTGTAAGATGGC [XGTACX_site4472],8.04 ± 0.56
5,TTATTTTTTTTGTGTTGTACAATTTATTACTACTAA [XGTACX_site346],8 ± 0.47
6,AATATATTTTAATATACACACATATATGCTCTTTAA [CACACA_site9371],7.82 ± 0.38
7,TTATTTATGTGTAGGGCATGCAATCGTGTTTTTAAA [TGCATGCA_site735],8.01 ± 0.69
8,GTATTTATAATACGGCGTACATAAAAAAAAAAAAAA [XGTACX_site3705],8.14 ± 0.45
9,AAACAAATATGTAGCACACATTCACATAATATATTT [CACACA_site2335],8.38 ± 0.48
10,TAATATGCATAAAATTGTACAAACTTACATATAATA [XGTACX_site2752],7.89 ± 0.38
11,TTTTTTATAGGACATGCATGTTGTAGAGCTGTATAT [TGCATGCA_site704],8.1 ± 0.62
12,TTCATAGAATTATATATTTTAAAAAAAAAAATAATT [CACACA_negctrl_site175],7.31 ± 0.38
13,TGTCAAAATATGTATACACACAATTTTTTTTTTTTT [CACACA_site2465],7.62 ± 0.56
14,TTTTTCATAAGAAGCACACAAAAAATGATAGAGAAT [CACACA_site1417],8.33 ± 0.68
15,TAATAAATAAAATAGAGTACAGGGATTTCATTAAAT [XGTACX_site8979],7.92 ± 0.53
16,TATATTACTTATATTTGTACACAGAAATATAAATCA [XGTACX_site13],7.75 ± 0.4
17,ACGTAATTAATTCATCAGATATAATTAATAATAATA [XGTACX_negctrl_site550],7.54 ± 0.56
18,ATAAATTTTTTTTTTTTTTTTTTTCTTTTTCTTTGT [CACACA_negctrl_site1231],7.24 ± 0.75
19,ACTAAAGTGTATCACTGTACAATTCTTCTCTTTTTT [XGTACX_site8705],7.72 ± 0.64
20,AATATATTTGTGTATGTGCGCAGTGTGTAATTTATT [GTGCAC_site9765],8.68 ± 0.52
21,CATCTCATATTTTGAAGTACTAAGAAAAGATATAAA [XGTACX_site6867],7.78 ± 0.49
22,AGAAAAAAATAATGTACACACACATAGATGTTTATA [CACACA_site4271],7.75 ± 0.41

row,Sequence,gcPBM binding intensity (ln)
1,TCAATAATAACAAATGAACACACATATATATGAGCA [CACACA_site8663],7.44 ± 0.49
2,AAAAAAAAAAAAAAAAGTACACAGTAGAATTAAATG [XGTACX_site1843],8.72 ± 0.39
3,GAACAATAAATAAAAAAAATAAAAATAAAAATAAAA [TGCATGCA_negctrl_site35],7.75 ± 0.8
4,ATAAGTAAATTAGATACACACATGATATCATACATA [CACACA_site1623],7.67 ± 0.55
5,TTTTTTTTTTAATTAACACACATAAATATATATATA [CACACA_site3275],8.85 ± 0.13
6,TATATATATATTAATAGTACATATTATGTAAGCCTA [XGTACX_site2826],8.845 ± 0.064
7,TTTTTTTTTTTTTTTGTGCACAATATAATTTTTAAT [GTGCAC_site9747],10.9 ± 0.52
8,ATAAAACAAATGAGTACACACACATAAAAATTGAAA [CACACA_site7949],8.08 ± 0.042
9,AAAAAATACATACATACACACATATATATATATATA [CACACA_site913],9.57 ± 0.2
10,TCCTCTTATAATTCGTGTCCACATATATCATACAAT [XGTACX_site1523],8.22 ± 0.33
11,TACGGATATATATATTGTACATATATATAATATATA [XGTACX_site3156],7.71 ± 0.33
12,TTATTCATAAAAACAAAAAACAAAAATGAAATAGGA [CACACA_negctrl_site1123],7.83 ± 0.57
13,TATGATATAATATACACACATACATATATATATATA [CACACA_site510],9.13 ± 0.52
14,TTAATATTTTATTTCACACACATAAATGCCCCAAAC [CACACA_site1887],9.45 ± 0.15
15,AGAGTTCTCCTATGCACACAAAAAACTTTCATTTAT [CACACA_site4193],8.62 ± 0.43
16,TATTATGTCTAAAATAACATATTAATATATTATTTC [CACACA_negctrl_site285],7.46 ± 0.49
17,CATCATATAAATTCAAGTACAAGAAAAAGTAATATA [XGTACX_site2383],7.68 ± 0.49
18,AAATAATTTTTATTTGTACACACATACATATATATT [CACACA_site8240],7.79 ± 0.53
19,TAAATAAAGATATATACACACATATTTATATTTATA [CACACA_site6431],7.31 ± 0.54
20,ATATCTACTTTTTTATGTACGAAAAAAATACGGATT [XGTACX_site8937],7.92 ± 0.46
21,ACAAAATTGAAATTCACACAAAAACTATACTTTTTA [CACACA_site4638],7.37 ± 0.52
22,TTTAAGCAAAGACACACACACATATTTATATTTATA [CACACA_site6295],7.69 ± 0.49
